Reference: PubChem BioAssay AID743279 (National Center for Advancing Translational Sciences (NCATS), 2014)
Out of some 360,000 compounds screened, about 17,000 (4.7%) were called active. This list was built around the results that the source calls inconclusive (neither active nor inactive); the mix of calls is not that of the screen. No stated cut-off is given here; in the data, active means activity change below about -50%; inconclusive means mostly about -30% to -49%; inactive means weaker than that.

Assay: qHTS for Inhibitors of Inflammasome Signaling: IL-1-beta AlphaLISA Primary Screen
Settings: THP-1 LPS/ATP IL-1B secretion, 16 h; at 57.5 µM, stronger effect = lower value
In short: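 Secreted IL-1B measured by AlphaLISA bead assay after 16 h compound exposure of THP-1 cells; compounds (final up to 57.5 uM) added 1 h before LPS (250 ng/mL) and ATP (1.25 mM) stimulation; lower signal means less secretion.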
On the % scale 0 is the no-effect control and ±100 the full control effect.

Row | Structure (SMILES) | activity change
1 | CCCCN(CC)CCNC(=O)c1cc2c(=O)n(CC)c3ccccc3c2s1 | inconclusive: -46.8%
2 | Cc1ccc(Nc2nc(CSc3nnc(-c4cccnc4)n3-c3ccccc3C)cs2)cc1 | inconclusive: -46.1%
3 | COc1cccc(OC)c1OCCCOc1ccc([N+](=O)[O-])cc1Cl | inconclusive: -32.5%
4 | O=C(Cc1ccc(-n2c(=O)c3sccc3n(CC(=O)Nc3ccccc3F)c2=O)cc1)NCc1ccco1 | inactive: 12.9%
5 | COc1ccc(Cn2c(=O)[nH]c3cc(C(=O)N4CCN(c5ccccn5)CC4)ccc3c2=O)cc1 | inactive: -15.9%
6 | CN1CCN(CC(=O)N2c3ccccc3C(C)(c3ccc(Cl)cc3)CC2(C)C)CC1 (stereo not drawn) | inconclusive: -32.5%
7 | CCOP(=O)(OCC)c1nc(-c2cccc3ccccc23)oc1N1CCCCC1 | inconclusive: -35.6%
8 | COc1ccc(C(NC(=O)c2c(F)c(F)c(F)c(F)c2F)c2ccccc2)cc1 (stereo not drawn) | active: -121%
9 | Cc1ncc(C(O)c2ccc(N(C)C)cc2)n1Cc1ccccc1 (stereo not drawn) | inactive: -2.29%
10 | CCCN1C(=O)/C(=N\OCC(=O)Nc2ccc(C(C)C)cc2)c2ccccc21 | inconclusive: -30.7%
11 | CC(C)(C)C(=O)/C=C/c1ccc(Oc2ccccc2)cc1 | inconclusive: -33.7%
12 | CCOC(=O)C1=C(CNCc2ccccc2Cl)NC(=O)NC1c1cccc([N+](=O)[O-])c1 (stereo not drawn) | inconclusive: -45.5%
13 | Cc1ccc(-c2ccc(/C=C3\C(=O)ON=C3c3ccccc3)o2)c([N+](=O)[O-])c1 | active: -107%
14 | CCOc1ccc(Br)cc1C(=O)Nc1ccc(C(=O)NCC(C)C)cc1 | inactive: -12.9%
15 | COc1ccccc1/C=N/OCc1ccc(C#N)cc1 | inconclusive: -36.6%
16 | Cn1c(O)c(N=NC(=O)c2cccc(S(=O)(=O)N3CCCCC3)c2)c2ccccc21 | inactive: -22.4%
17 | CCc1ccc(-c2nn(-c3ccccc3)cc2CSC(=N)N)cc1 | active: -102%
18 | COc1cc2nc(SCc3ccc(Cl)cc3Cl)n(Cc3cccs3)c(=N)c2cc1OC | inconclusive: -42.9%
19 | CCCC(=O)N1CCN(c2ccc(NC(=O)c3cc4ccccc4o3)cc2Cl)CC1 | active: -111%
20 | O=C(Nc1ccc2[nH]c(=O)[nH]c2c1)c1ccc(Br)o1 | inconclusive: -36.4%
21 | O=C(COC(=O)c1cc(S(=O)(=O)N2CCOCC2)c(Cl)cc1Cl)NCc1ccco1 | active: -80%
22 | Clc1ccc(OCCCCCN2CCCC2)c(Br)c1 | inconclusive: -45.8%
23 | CCOc1ccccc1/C=C(/NC(=O)c1ccccc1)C(=O)N1CCCCC1 | inconclusive: -45.2%
